PMC10726135
Some of the results follow. At the low end of the ranking, values are background and their order means little. Measured with an extract: partners may take part in the binding.

What follows are sequences tested against T1, HNF4alpha8 (COS-7 nuclear extract) (UniProt P41235-5) (assay: protein-binding microarray). Details: COS-7 nuclear extract on double-stranded Agilent 4x180k PBM; binding buffer, salt, pH and temperature not given; high values mean tight binding; double strand, one strand shown; sequences stand for … in …GCCTAGGGAGATTAGAGTATCGGTCGA.
T1 sequence: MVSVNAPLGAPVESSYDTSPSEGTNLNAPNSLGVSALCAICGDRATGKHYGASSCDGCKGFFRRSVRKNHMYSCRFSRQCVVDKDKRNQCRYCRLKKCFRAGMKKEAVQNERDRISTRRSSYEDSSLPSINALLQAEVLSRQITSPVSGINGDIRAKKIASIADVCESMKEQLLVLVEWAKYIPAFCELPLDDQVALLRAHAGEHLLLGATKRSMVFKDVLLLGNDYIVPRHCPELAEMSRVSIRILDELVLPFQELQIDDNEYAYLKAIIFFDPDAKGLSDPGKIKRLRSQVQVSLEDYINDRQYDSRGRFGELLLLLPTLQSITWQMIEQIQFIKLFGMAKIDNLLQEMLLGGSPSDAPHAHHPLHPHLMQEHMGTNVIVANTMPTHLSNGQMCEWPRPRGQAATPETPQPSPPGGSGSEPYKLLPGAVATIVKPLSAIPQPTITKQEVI
TGATGACGCCACGCCGCTCTTTCTCTTTCA was tested, and the binding signal (log2 normalized intensity) was -1.35.
Work on AGAAATATCAGCAAGGAAATAAAAGAGCCT yielded a binding signal (log2 normalized intensity) of -1.32.
In the case of GATCTGGCCAGGCCTGGTTCGGGATTATGG, the binding signal (log2 normalized intensity) is reported as 0.54.
Work on TCTCCTCCACAGAGCACAGGATCCAGAGGT yielded a binding signal (log2 normalized intensity) of -1.29.
In the case of TTACAGGCAATTGATAATGATGTTTACATT, the binding signal (log2 normalized intensity) is reported as 1.34.
Sequence GCTGGGCAGAGGGACAACTGAGTTACGTAA has a binding signal (log2 normalized intensity) of -0.77.
ATGTCATGCAGCTAAAAGCAGCATCCCTGA was tested, and the binding signal (log2 normalized intensity) was -1.19.
Sequence TTGACATAAACAGAAGCAATCACAAGGAAT has a binding signal (log2 normalized intensity) of -1.37.
GTTTTTAAAGGCTTTTAAAGGCTAGTGAAA showed a binding signal (log2 normalized intensity) of -1.3.
In the case of CCTGAAAGAGAGGAGGCTGAAGACTTTGCA, the binding signal (log2 normalized intensity) is reported as -1.31.
TGCCTTAAGTTGAAGTGAGTTGTTTGTTTT showed a binding signal (log2 normalized intensity) of 1.66.
In the case of GACCTCATGTAGTCACATACCTATGCAAAC, the binding signal (log2 normalized intensity) is reported as 1.02.
Work on GCACTGGTTCAAAGTGTAGCGCAGCCAGTT yielded a binding signal (log2 normalized intensity) of -1.26.
With GTGACCTTTGACCTCAGAGAGCCGGAAACT the binding signal (log2 normalized intensity) was 8.02.
TCTGGGGCCTATCTTTCTGTCTCATTCCCT gave a binding signal (log2 normalized intensity) of -1.
Work on TGAATGGCTGATTGGCAGGCATTCCACACT yielded a binding signal (log2 normalized intensity) of -1.42.
CCATATTGACTAAACATTCTTGAATTTCGT showed a binding signal (log2 normalized intensity) of 0.669.
With AAGCCACAGTACAAAGGTGAGCTTTTATCT the binding signal (log2 normalized intensity) was 3.65.
Work on TTTGAGTCATTGAGGCTTTGCCTTAGGATT yielded a binding signal (log2 normalized intensity) of -0.614.
With AATTCCTGCTGGGCGTGAACTGTGACTTTT the binding signal (log2 normalized intensity) was 2.46.
In the case of AACAGTGGCTGGCCATGAGTGAGCACTTAA, the binding signal (log2 normalized intensity) is reported as -1.39.
GAAGCTCTGGGAGTGCCCTTGCCGAGAGCG gave a binding signal (log2 normalized intensity) of -1.41.
In the case of ACAGTCCACAGAAACGCAGTCCTGAAAACA, the binding signal (log2 normalized intensity) is reported as -1.41.
In the case of AACTTTTTCCTTTTCTTATCTGTTCACAGT, the binding signal (log2 normalized intensity) is reported as 1.4.
For TAGGGGGCAATTTCCCTGGTCGACCTCCCC, the binding signal (log2 normalized intensity) was 3.01.
Work on CAGCTGGATTGTTACATCATAGTGTTTGCC yielded a binding signal (log2 normalized intensity) of 1.19.
For CCCAAGCTGTTATTCCAGGCACAAGAATGG, the binding signal (log2 normalized intensity) was -1.31.
With AATATTCTGGCTTCTCGTGAGTATTTTTTC the binding signal (log2 normalized intensity) was 1.17.
Sequence ATTCTAATCCTCTGGTCTTTGCCCCAGCTC has a binding signal (log2 normalized intensity) of 3.77.
AGAATGGGCCAAGCTTAGGAATTCCAAGAA showed a binding signal (log2 normalized intensity) of -1.22.
CCCTCACTGAATATGTTCGGGAGACATGTG was tested, and the binding signal (log2 normalized intensity) was 1.67.
AGCACACACGAGCTGTGCGCTTAGTCCATG gave a binding signal (log2 normalized intensity) of -1.38.
Sequence CATGTAACCAAAATGCCAATAGTGGCTTTG has a binding signal (log2 normalized intensity) of -1.28.
AAGGACACAACAGAATGTGACTGCCCTCTC gave a binding signal (log2 normalized intensity) of 2.6.
GGGGGAGGTGCAGAGAGGGGCAGGGTTCAC was tested, and the binding signal (log2 normalized intensity) was 2.81.
With GCCTGGTCCGCCCTTCCCCGCTCTCCCCGC the binding signal (log2 normalized intensity) was 3.87.
Work on TGGATTGTACTGTGTCTTGATCTTGCAACT yielded a binding signal (log2 normalized intensity) of 1.56.
In the case of ATCCTGAAAACAAATAGAGCAGACTATTAT, the binding signal (log2 normalized intensity) is reported as -1.35.
GTAGAGCTTATCAAGGCAACTTTGGGCCAA was tested, and the binding signal (log2 normalized intensity) was -1.32.
In the case of TGTCTCTGGTTGAAGGGGAGGTTATCTTGG, the binding signal (log2 normalized intensity) is reported as 1.48.
ATCTTCTTACCCCTTTGCTGATTACCTCAA gave a binding signal (log2 normalized intensity) of 1.55.
In the case of TGTGGGCCTCACACCCTCTAGGGTAGATAA, the binding signal (log2 normalized intensity) is reported as -1.33.
AAGGATTAGCAGATAAATCTAGGCCTAGGC gave a binding signal (log2 normalized intensity) of -1.1.
Sequence AATCCTGGATTCCTCCAGCCCTCCTCTCTG has a binding signal (log2 normalized intensity) of -0.791.
For TAGGCCACCTGTGTCAACATGGACTTTGTT, the binding signal (log2 normalized intensity) was 6.25.
TCCTTCACTAAAGTTACAAGATCTTTGGAC was tested, and the binding signal (log2 normalized intensity) was 3.41.
Sequence CAAACACTCATTTCACATTGGTGCCCTTTG has a binding signal (log2 normalized intensity) of 4.06.
With GATAACCTCAAAGAGCATGGCGCCAGGGAG the binding signal (log2 normalized intensity) was -1.15.
GAATCTTAACCAAAGTGTGATTAACAAGCA gave a binding signal (log2 normalized intensity) of -1.08.
Work on TAAAGCTGAGGTATTTTTGCAATCCTCCAC yielded a binding signal (log2 normalized intensity) of -0.919.
TGACACAGCTGGCCCATGGGCACCTCGTCC showed a binding signal (log2 normalized intensity) of -1.43.
CTTTTGTGCTCTGTACCCGGCTGCCCGATA was tested, and the binding signal (log2 normalized intensity) was 0.932.
With CTCTTAGTGAAGGATGGGGACCTTGTTACC the binding signal (log2 normalized intensity) was 2.04.
CTTTGCTCCCACCCTGCAATTCCCCTGGGC gave a binding signal (log2 normalized intensity) of 3.4.
ATTATCCCCCGCAACTATTTATGAGTCTTG was tested, and the binding signal (log2 normalized intensity) was 1.75.
Sequence TATACATTTTCCCACTTGTATGTCCAAGGG has a binding signal (log2 normalized intensity) of 1.25.
ACAATGTGGGGGTCGGGGCACTGGTCCCCT gave a binding signal (log2 normalized intensity) of 1.26.
Sequence AGAAATGGCCTTAGGGTGAGGCATCTGGAC has a binding signal (log2 normalized intensity) of 0.167.
TGACAGGTTTCTTGCTGAAGGTAGGACAGG gave a binding signal (log2 normalized intensity) of 0.122.
AAGTGGTATCCTGCAGTCAGTCTGATTGGT was tested, and the binding signal (log2 normalized intensity) was 0.637.
In the case of AAAGCCAACAGTACAGCCTTTGATCTACAG, the binding signal (log2 normalized intensity) is reported as -1.24.
Work on ATGCCAAGTTTCAGGCTATGAATGAAGTCT yielded a binding signal (log2 normalized intensity) of -1.05.
For TGCCGGGAAAGGCATACGTGCTTAATCCTG, the binding signal (log2 normalized intensity) was -1.2.
TATACAGCGTCTAAGAAGATAACATATACT was tested, and the binding signal (log2 normalized intensity) was -1.33.
Work on GTTTGAAGGCTCCGGAAACGTATGACTTTG yielded a binding signal (log2 normalized intensity) of 0.757.
CCCAGCCACCAAATCAATCAAACTCTCTGT gave a binding signal (log2 normalized intensity) of -1.41.
For TTGTACGCGTCGAACTAGCTTGGTGCAGGG, the binding signal (log2 normalized intensity) was -0.186.
With TTTCCGAGGAGAGCAAACACCAAGGGCAGA the binding signal (log2 normalized intensity) was -1.01.
In the case of TCTTTGTAGGAAGGCTTTGAAGTCTGGTGG, the binding signal (log2 normalized intensity) is reported as 0.67.
ACTGAGGGGTGGGGACCAGTGGGGGGAAGC gave a binding signal (log2 normalized intensity) of -1.18.
Work on AATATTTGCTGTCTCTTCCACCTGGAATGC yielded a binding signal (log2 normalized intensity) of 0.79.
TGCAAGCACACTGTCCTGCTTTGAAGATAA gave a binding signal (log2 normalized intensity) of -0.689.
